From paper PMC11760013
Residue numbers refer to the chain shown, from its start. No constants are given. Whether binding was seen depends on the method and setting. Binding seen in cells or lysates may run through a third protein. Some results given as binding are weak or reduced against the parent protein; the word gives no strength. For some of these results: Tags and fused reporters may be left off the sequences shown. One block for each molecule: values may come before it.

Amino acid sequences for entries named in this document (tags omitted). A change or cut given only in a name is not applied to a line headed by its entry. Chains listed by the source or under a name are the forms on record and can include a tag or linker. Residues count along the entry.
UniProt Q9Y2G2: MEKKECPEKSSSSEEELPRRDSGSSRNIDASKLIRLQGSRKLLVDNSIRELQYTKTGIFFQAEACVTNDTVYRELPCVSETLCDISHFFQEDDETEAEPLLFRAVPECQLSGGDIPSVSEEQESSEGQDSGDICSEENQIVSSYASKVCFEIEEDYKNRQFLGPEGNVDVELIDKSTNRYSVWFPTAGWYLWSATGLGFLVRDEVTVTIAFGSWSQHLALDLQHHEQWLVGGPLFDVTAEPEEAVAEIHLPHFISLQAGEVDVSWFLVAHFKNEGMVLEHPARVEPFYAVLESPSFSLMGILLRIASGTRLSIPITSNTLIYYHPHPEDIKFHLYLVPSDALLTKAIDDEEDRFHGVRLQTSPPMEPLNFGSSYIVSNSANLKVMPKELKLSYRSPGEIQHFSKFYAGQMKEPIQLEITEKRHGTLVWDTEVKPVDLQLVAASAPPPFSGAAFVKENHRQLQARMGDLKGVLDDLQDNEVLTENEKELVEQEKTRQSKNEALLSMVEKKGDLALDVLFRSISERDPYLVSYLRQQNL
CARD8^NT, N-terminal Flag tag: residues 1-296 of Q9Y2G2
FIIND of CARD8 (HEK293T construct): residues 161-446 of Q9Y2G2
ZU5 of CARD8 (HEK293T construct): residues 161-296 of Q9Y2G2
UniProt Q86TI2: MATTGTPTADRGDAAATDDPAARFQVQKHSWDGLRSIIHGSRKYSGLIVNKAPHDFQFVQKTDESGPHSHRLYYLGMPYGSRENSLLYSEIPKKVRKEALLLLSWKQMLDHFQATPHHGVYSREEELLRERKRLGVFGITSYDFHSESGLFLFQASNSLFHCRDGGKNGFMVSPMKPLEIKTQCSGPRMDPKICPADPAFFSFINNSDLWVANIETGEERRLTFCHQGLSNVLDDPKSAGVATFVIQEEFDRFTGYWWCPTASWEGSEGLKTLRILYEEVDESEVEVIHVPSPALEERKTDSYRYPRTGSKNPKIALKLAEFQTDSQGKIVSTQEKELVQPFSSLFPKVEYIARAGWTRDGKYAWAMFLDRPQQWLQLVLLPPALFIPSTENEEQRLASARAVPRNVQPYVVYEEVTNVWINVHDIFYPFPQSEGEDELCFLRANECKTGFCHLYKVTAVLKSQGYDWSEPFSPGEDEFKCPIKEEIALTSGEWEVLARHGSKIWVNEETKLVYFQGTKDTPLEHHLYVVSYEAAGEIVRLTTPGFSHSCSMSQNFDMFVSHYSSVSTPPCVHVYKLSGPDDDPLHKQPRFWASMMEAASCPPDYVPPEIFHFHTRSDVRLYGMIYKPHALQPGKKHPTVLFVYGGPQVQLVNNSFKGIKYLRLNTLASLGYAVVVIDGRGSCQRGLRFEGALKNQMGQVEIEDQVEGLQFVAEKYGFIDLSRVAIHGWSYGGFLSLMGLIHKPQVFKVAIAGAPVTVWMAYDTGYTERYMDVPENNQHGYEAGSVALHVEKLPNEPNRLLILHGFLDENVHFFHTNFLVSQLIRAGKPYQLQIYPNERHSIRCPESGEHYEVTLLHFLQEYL

Legend:
Experiment in all cases: co-IP; HEK293T co-transfected, lysed 48 h later in 50 mM Tris-HCl pH 7.4, 150 mM NaCl, 1% NP-40, 1 mM EDTA, 10% glycerol; IP with anti-Flag M2 agarose 4 h at 4 °C; immunoblot; the NT-CT pairs also in DPP8/9 double-knockout HEK293T (binding unaffected)
[1] = biological target: cleavage-resistant CARD8 S297A, N-terminal Flag tag (UniProt Q9Y2G2)
[2] = biological target: FIIND of CARD8 (HEK293T construct) (UniProt Q9Y2G2)
[3] = biological target: T1, wild-type murine NLRP1b, N-terminal Flag tag (mouse) (UniProt Q2LKW6)
T1 sequence: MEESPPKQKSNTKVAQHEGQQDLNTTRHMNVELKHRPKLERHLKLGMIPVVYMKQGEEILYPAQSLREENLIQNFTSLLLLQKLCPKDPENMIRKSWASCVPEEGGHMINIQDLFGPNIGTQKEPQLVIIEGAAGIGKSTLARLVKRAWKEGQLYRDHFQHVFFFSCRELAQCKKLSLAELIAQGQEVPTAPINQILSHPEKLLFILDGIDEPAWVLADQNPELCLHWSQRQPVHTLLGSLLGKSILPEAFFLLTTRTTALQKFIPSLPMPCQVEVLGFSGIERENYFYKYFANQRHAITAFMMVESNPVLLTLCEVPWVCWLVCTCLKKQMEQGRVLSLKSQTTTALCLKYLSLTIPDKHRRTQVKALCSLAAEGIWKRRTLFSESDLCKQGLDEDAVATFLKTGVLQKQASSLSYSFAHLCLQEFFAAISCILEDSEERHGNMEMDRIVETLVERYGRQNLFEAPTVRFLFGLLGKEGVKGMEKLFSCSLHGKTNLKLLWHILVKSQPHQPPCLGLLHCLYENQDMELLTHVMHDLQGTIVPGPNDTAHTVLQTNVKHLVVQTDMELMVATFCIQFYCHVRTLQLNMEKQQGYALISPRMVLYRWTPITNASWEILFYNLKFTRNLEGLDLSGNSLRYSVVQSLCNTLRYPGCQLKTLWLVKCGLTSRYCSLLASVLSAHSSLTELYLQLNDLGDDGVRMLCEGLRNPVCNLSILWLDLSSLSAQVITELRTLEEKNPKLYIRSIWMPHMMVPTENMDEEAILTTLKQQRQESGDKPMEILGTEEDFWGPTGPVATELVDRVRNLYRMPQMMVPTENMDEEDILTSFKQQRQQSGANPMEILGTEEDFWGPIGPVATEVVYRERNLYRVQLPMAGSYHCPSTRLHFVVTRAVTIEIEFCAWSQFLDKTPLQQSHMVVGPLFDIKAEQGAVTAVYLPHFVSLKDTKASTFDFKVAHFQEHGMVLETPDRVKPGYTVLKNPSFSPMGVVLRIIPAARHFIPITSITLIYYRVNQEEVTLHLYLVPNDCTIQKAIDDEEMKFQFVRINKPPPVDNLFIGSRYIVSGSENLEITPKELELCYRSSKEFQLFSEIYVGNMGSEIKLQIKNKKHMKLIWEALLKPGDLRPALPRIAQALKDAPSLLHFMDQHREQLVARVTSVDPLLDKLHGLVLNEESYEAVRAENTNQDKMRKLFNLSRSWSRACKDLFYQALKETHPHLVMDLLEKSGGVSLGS

[4] = biological target: CARD8^NT, N-terminal Flag tag (UniProt Q9Y2G2)
[5] = biological target: T2, FIIND of hNLRP1 (HEK293T construct) (human) (UniProt Q9C000)
T2 sequence: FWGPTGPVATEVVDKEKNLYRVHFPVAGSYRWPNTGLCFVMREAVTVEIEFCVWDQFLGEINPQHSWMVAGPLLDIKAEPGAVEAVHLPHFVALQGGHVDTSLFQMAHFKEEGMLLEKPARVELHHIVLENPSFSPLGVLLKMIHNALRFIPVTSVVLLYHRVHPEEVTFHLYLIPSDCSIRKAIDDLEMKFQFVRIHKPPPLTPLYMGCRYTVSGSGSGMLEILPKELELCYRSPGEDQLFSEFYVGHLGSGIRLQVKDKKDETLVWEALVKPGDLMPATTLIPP

[6] = biological target: T3, FIIND of mNLRP1b (HEK293T construct) (mouse) (UniProt Q2LKW6)
T3 sequence: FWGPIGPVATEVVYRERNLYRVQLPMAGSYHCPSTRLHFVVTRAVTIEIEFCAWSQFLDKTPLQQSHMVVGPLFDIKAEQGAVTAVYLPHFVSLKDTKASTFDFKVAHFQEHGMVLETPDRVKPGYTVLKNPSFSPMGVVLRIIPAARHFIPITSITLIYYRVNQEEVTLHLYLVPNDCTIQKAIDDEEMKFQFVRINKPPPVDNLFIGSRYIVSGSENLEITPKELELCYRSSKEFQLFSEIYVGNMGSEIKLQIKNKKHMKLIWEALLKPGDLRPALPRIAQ

[7] = biological target: ZU5 of CARD8 (HEK293T construct) (UniProt Q9Y2G2)
[8] = biological target: T4, cleavage-resistant mNLRP1b S984A, N-terminal Flag tag (mouse) (UniProt Q2LKW6)
T4 sequence: T1 sequence with S984A

[9] = biological target: wild-type CARD8, N-terminal Flag tag (UniProt Q9Y2G2)
[10] = biological target: T5, Linker3 of mNLRP1b (HEK293T construct) (mouse) (UniProt Q2LKW6)
T5 sequence: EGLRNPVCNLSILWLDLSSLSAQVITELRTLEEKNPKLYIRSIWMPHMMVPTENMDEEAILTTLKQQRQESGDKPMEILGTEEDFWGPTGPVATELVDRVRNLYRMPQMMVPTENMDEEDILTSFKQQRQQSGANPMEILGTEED

binding [1]: binds | binding [2]: binds | binding [3]: binds | binding [4]: binds | binding [5]: binds | binding [6]: binds | binding [7]: binds | binding [8]: binds | binding [9]: binds
Molecule: dipeptidyl peptidase 9 (DPP9) (from UniProt Q86TI2 1-863) (enzyme)

binding [10]: no binding
B1: CARD of mNLRP1b (HEK293T construct) (domain or fragment, UniProt Q2LKW6 1143-1226)
chain: HFMDQHREQLVARVTSVDPLLDKLHGLVLNEESYEAVRAENTNQDKMRKLFNLSRSWSRACKDLFYQALKETHPHLVMDLLEKS
